The supplement of paper PMC12217912
This is one part of the list. Sequences were assembled here from the parent chain. Inactive controls read about 0.05.

B1: TEV protease; numbered along this chain (parent)
chain: MGESLFKGPRDYNPISSSICHLTNESDGHTTSLYGIGFGPFIITNKHLFRRNNGTLVVQSLHGVFKVKDTTTLQQHLVDGRDMIIIRMPKDFPPFPQKLKFREPQREERICLVTTNFQTKSMSSMVSDTSCTFPSGDGIFWKHWIQTKDGQCGSPLVSTRDGFIVGIHSASNFTNTNNYFTSVPKNFMELLTNQEAQQWVSGWRLNADSVLWGGHKVFMVKPEEPFQPVKEATQL

Variants of: B1
Experiment: raw area under fraction-flipped curve 0-4 h after induction (AUC4h, not background-subtracted), DNA-recorder readout of cleavage of the substrate (dimensionless); higher = more cleavage of the substrate by the protease variant
Conditions: temperature: 34 °C; time window: 0-4 h after rhamnose induction
Protocol: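 In vivo DNA recorder in E. coli TOP10(DE3) ΔrhaA at 34 °C. Each TEVp single-site mutant (parent TEVp 0) is paired with a single-site variant of the 7-mer TEVs (canonical ENLYFQ|S). The substrate sits between flexible linkers in a Bxb1-sfGFP-TEVs-SsrA fusion, so cleavage stabilises Bxb1 and speeds flipping of a recombination array, read by NGS. The value is the raw area under the fraction-flipped curve over 0-4 h after rhamnose induction (AUC4h), with ≥20 reads per time point. It is not background-subtracted; inactive controls average about 0.047.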
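Also: Bxb1 expression induced with 0.2% (w/v) L-rhamnose at OD600 near 0.5, cultures sampled hourly, flipped fraction per protease–substrate barcode pair counted by paired-end Illumina sequencing.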

## I19W
  area with substrate CNLYFQS: 0.044
  area with substrate DNLYFQS: 0.0498
  area with substrate FNLYFQS: 0.0421
  area with substrate GNLYFQS: 0.0488
  area with substrate HNLYFQS: 0.056
  area with substrate INLYFQS: 0.0436
  area with substrate KNLYFQS: 0.0237
  area with substrate LNLYFQS: 0.0484
  area with substrate MNLYFQS: 0.0416
  area with substrate PNLYFQS: 0.0518
  area with substrate SNLYFQS: 0.0424
  area with substrate TNLYFQS: 0.0271
  area with substrate VNLYFQS: 0.0357
  area with substrate WNLYFQS: 0.0535
  area with substrate YNLYFQS: 0.043

## G63L
  area with substrate CNLYFQS: 0.082
  area with substrate DNLYFQS: 0.0835
  area with substrate FNLYFQS: 0.063
  area with substrate HNLYFQS: 0.0584
  area with substrate INLYFQS: 0.0372
  area with substrate KNLYFQS: 0.0553
  area with substrate LNLYFQS: 0.057
  area with substrate MNLYFQS: 0.0551
  area with substrate SNLYFQS: 0.0519
  area with substrate TNLYFQS: 0.0557
  area with substrate VNLYFQS: 0.0607
  area with substrate WNLYFQS: 0.0525
  area with substrate YNLYFQS: 0.0589

## Q151N
  area with substrate CNLYFQS: 0.0544
  area with substrate DNLYFQS: 0.0617
  area with substrate FNLYFQS: 0.0675
  area with substrate HNLYFQS: 0.054
  area with substrate INLYFQS: 0.0608
  area with substrate KNLYFQS: 0.0474
  area with substrate LNLYFQS: 0.06
  area with substrate MNLYFQS: 0.0575
  area with substrate PNLYFQS: 0.0609
  area with substrate SNLYFQS: 0.0578
  area with substrate VNLYFQS: 0.061
  area with substrate WNLYFQS: 0.0554
  area with substrate YNLYFQS: 0.05

## S60C
  area with substrate CNLYFQS: 0.0573
  area with substrate DNLYFQS: 0.084
  area with substrate HNLYFQS: 0.0585
  area with substrate INLYFQS: 0.0598
  area with substrate KNLYFQS: 0.0806
  area with substrate LNLYFQS: 0.0659
  area with substrate MNLYFQS: 0.0599
  area with substrate NNLYFQS: 0.0845
  area with substrate PNLYFQS: 0.0648
  area with substrate QNLYFQS: 0.0761
  area with substrate RNLYFQS: 0.0629
  area with substrate SNLYFQS: 0.0738
  area with substrate TNLYFQS: 0.0657
  area with substrate VNLYFQS: 0.0692
  area with substrate WNLYFQS: 0.0619
  area with substrate YNLYFQS: 0.0603

## V157W
  area with substrate CNLYFQS: 0.0481
  area with substrate DNLYFQS: 0.0792
  area with substrate FNLYFQS: 0.0519
  area with substrate HNLYFQS: 0.0487
  area with substrate INLYFQS: 0.0586
  area with substrate KNLYFQS: 0.0672
  area with substrate LNLYFQS: 0.0591
  area with substrate NNLYFQS: 0.055
  area with substrate PNLYFQS: 0.0484
  area with substrate QNLYFQS: 0.069
  area with substrate SNLYFQS: 0.0703
  area with substrate TNLYFQS: 0.0485
  area with substrate VNLYFQS: 0.0472
  area with substrate WNLYFQS: 0.0527
  area with substrate YNLYFQS: 0.0409

## L99Y
  area with substrate CNLYFQS: 0.0591
  area with substrate DNLYFQS: 0.0698
  area with substrate FNLYFQS: 0.0717
  area with substrate GNLYFQS: 0.0593
  area with substrate HNLYFQS: 0.0477
  area with substrate INLYFQS: 0.072
  area with substrate KNLYFQS: 0.0538
  area with substrate PNLYFQS: 0.0487
  area with substrate QNLYFQS: 0.0628
  area with substrate SNLYFQS: 0.0767
  area with substrate TNLYFQS: 0.0818
  area with substrate WNLYFQS: 0.0559

## F133M
  area with substrate CNLYFQS: 0.0195
  area with substrate DNLYFQS: 0.0817
  area with substrate HNLYFQS: 0.074
  area with substrate INLYFQS: 0.0623
  area with substrate LNLYFQS: 0.062
  area with substrate MNLYFQS: 0.0583
  area with substrate NNLYFQS: 0.0657
  area with substrate SNLYFQS: 0.06
  area with substrate TNLYFQS: 0.0776
  area with substrate WNLYFQS: 0.0797
  area with substrate YNLYFQS: 0.0644

## G28Q
  area with substrate CNLYFQS: 0.0543
  area with substrate DNLYFQS: 0.0377
  area with substrate FNLYFQS: 0.0611
  area with substrate GNLYFQS: 0.0478
  area with substrate HNLYFQS: 0.0643
  area with substrate INLYFQS: 0.0529
  area with substrate KNLYFQS: 0.0698
  area with substrate LNLYFQS: 0.0609
  area with substrate NNLYFQS: 0.0901
  area with substrate RNLYFQS: 0.0636
  area with substrate SNLYFQS: 0.0668
  area with substrate TNLYFQS: 0.0594
  area with substrate VNLYFQS: 0.0696
  area with substrate WNLYFQS: 0.0577
  area with substrate YNLYFQS: 0.0577

## F41Q
  area with substrate CNLYFQS: 0.081
  area with substrate DNLYFQS: 0.0682
  area with substrate GNLYFQS: 0.0604
  area with substrate HNLYFQS: 0.0411
  area with substrate INLYFQS: 0.05
  area with substrate KNLYFQS: 0.0545
  area with substrate LNLYFQS: 0.0412
  area with substrate MNLYFQS: 0.0504
  area with substrate NNLYFQS: 0.0512
  area with substrate PNLYFQS: 0.0404
  area with substrate TNLYFQS: 0.0618
  area with substrate WNLYFQS: 0.0541
  area with substrate YNLYFQS: 0.0481

## L22H
  area with substrate CNLYFQS: 0.0324
  area with substrate DNLYFQS: 0.0378
  area with substrate FNLYFQS: 0.0399
  area with substrate GNLYFQS: 0.0253
  area with substrate HNLYFQS: 0.0488
  area with substrate INLYFQS: 0.041
  area with substrate KNLYFQS: 0.058
  area with substrate LNLYFQS: 0.0507
  area with substrate MNLYFQS: 0.0557
  area with substrate NNLYFQS: 0.0531
  area with substrate PNLYFQS: 0.0491
  area with substrate RNLYFQS: 0.0476
  area with substrate SNLYFQS: 0.0543
  area with substrate TNLYFQS: 0.0474
  area with substrate VNLYFQS: 0.0516
  area with substrate WNLYFQS: 0.0536
  area with substrate YNLYFQS: 0.0403

## F173E
  area with substrate CNLYFQS: 0.0581
  area with substrate DNLYFQS: 0.127
  area with substrate FNLYFQS: 0.0487
  area with substrate HNLYFQS: 0.06
  area with substrate INLYFQS: 0.0531
  area with substrate KNLYFQS: 0.0709
  area with substrate PNLYFQS: 0.059
  area with substrate TNLYFQS: 0.0758
  area with substrate WNLYFQS: 0.0617

## I110N
  area with substrate CNLYFQS: 0.0463
  area with substrate DNLYFQS: 0.0393
  area with substrate FNLYFQS: 0.0247
  area with substrate GNLYFQS: 0.0524
  area with substrate HNLYFQS: 0.0647
  area with substrate INLYFQS: 0.0494
  area with substrate KNLYFQS: 0.0535
  area with substrate NNLYFQS: 0.042
  area with substrate SNLYFQS: 0.0556
  area with substrate VNLYFQS: 0.0487
  area with substrate WNLYFQS: 0.0593
  area with substrate YNLYFQS: 0.0472

## Q97A
  area with substrate CNLYFQS: 0.0579
  area with substrate DNLYFQS: 0.0736
  area with substrate GNLYFQS: 0.128
  area with substrate HNLYFQS: 0.0635
  area with substrate LNLYFQS: 0.063
  area with substrate PNLYFQS: 0.0714
  area with substrate RNLYFQS: 0.0706
  area with substrate VNLYFQS: 0.0591
  area with substrate WNLYFQS: 0.0538
  area with substrate YNLYFQS: 0.0567
